Screen size: about 48,000 compounds; about 550 (1.1%) were called active. Not shown: some 4% with an inconclusive outcome. Rule as the data show it: active = potency below about 15 µM; inconclusive = mostly about 16 µM to 33 µM; inactive = weaker than that. The list shows a part of the results.
These compounds were tested against Lysosomal acid glucosylceramidase (Homo sapiens) (UniProt P04062) (assay: Glucocerebrosidase). Conditions: purified enzyme, resorufin glucoside fluorescence (screen aimed at inhibitors), 20 min.
Summary of the method: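 Wild-type enzyme at 0.2 nM final in 50mM citric acid/KH2PO4, 10mM sodium taurocholate, 0.01% tween-20, pH 5.9, with resorufin beta-D-glucopyranoside at 30 uM final. Compounds titrated, 20 min at RT, red fluorescence read; AC50 from titration.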
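Also: the screen sought inhibitors.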
Potency is read from the fitted curve at half-maximal effect.

Sequence of UniProt P04062 (P04062 whole entry, looked up): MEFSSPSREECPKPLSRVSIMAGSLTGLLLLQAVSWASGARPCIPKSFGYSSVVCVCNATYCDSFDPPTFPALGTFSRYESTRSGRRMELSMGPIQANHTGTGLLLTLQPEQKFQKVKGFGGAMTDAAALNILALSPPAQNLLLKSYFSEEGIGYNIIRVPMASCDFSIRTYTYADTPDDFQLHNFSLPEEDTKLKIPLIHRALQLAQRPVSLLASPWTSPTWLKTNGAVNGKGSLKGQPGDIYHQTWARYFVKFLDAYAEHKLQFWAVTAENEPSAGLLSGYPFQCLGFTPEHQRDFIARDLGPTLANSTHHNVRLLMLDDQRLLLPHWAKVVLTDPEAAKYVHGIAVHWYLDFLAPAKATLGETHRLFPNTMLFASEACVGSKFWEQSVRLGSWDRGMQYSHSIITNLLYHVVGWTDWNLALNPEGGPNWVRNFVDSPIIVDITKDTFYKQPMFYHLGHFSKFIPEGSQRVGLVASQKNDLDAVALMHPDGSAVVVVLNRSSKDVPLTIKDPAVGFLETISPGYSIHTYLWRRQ

Potency, inactive:
CCN(CC)C(=O)C(C)OC(=O)COc1ccc(Cl)cc1C (stereo not given) > 76.9 µM
Nc1cc(S(=O)(=O)C(F)(F)F)ccc1C(=O)O > 76.9 µM
CC1(C)CC(=O)C2=C(C1)Oc1ncn(Cc3ccco3)c(=N)c1C2c1ccccc1 (stereo not given) > 76.9 µM
CCOC(=O)N1CCC(NC(=O)C2CCCN(S(=O)(=O)c3cccc4nsnc34)C2)CC1 (stereo not given) > 76.9 µM
CC(CCc1ccccc1)NC(=O)CN1CCN(Cc2ccccc2)C1=O (stereo not given) > 76.9 µM
COc1ccc(CC(=O)N2CCN(C(=O)Cc3ccc(OC)cc3)CC2)cc1 > 76.9 µM
NC(=O)CN(c1ccc(Cl)cc1)S(=O)(=O)c1ccccc1 > 76.9 µM
Cc1cc(NC(=O)NC(=O)c2cccc(OC(F)(F)C(F)F)c2)n[nH]1 > 76.9 µM
O=C1c2ccccc2NC(c2ccc3c(c2)OCO3)N1O (stereo not given) > 76.9 µM
CS(=O)(=O)N(CC(=O)Nc1ccc2c(c1)OCO2)Cc1ccc(Cl)cc1 > 76.9 µM
Cc1ccc(S(=O)(=O)N2CCN(C(=O)CCC(=O)NC3CCCc4ccccc43)CC2)cc1 (stereo not given) > 76.9 µM
C=CCNc1nc2c3ccccc3n(C(C)=O)c2s1 > 76.9 µM
CC(C)N1CC(O)=C(c2ccccc2)C1=N > 76.9 µM
Cc1ccc(S(=O)(=O)Cn2nnnc2C(C)N2CCN(C(=O)c3ccco3)CC2)cc1 (stereo not given) > 76.9 µM
Nc1ncnc2c1ncn2C1CCC(CO)C(O)C1 (stereo not given) > 76.9 µM
CC1CCc2c(C(=O)Oc3cccc(-n4cnnn4)c3)csc2C1 (stereo not given) > 76.9 µM
CCOC(=O)Cn1cnc2sc3c(c2c1=O)CCC3 > 76.9 µM
COc1ccc(C)cc1-n1c(SCC(=O)Nc2cc(C)on2)nc2sc(C)c(C)c2c1=O > 76.9 µM
O=C1NC(c2ccccc2Cl)Nc2ccccc21 (stereo not given) > 76.9 µM
COc1ccc(C(C(=O)NC2CCCC2)N(CCN(C)C)C(=O)c2snc(C(N)=O)c2N)cc1 (stereo not given) > 76.9 µM
CC(=O)c1cccc(NC(=O)CCNS(=O)(=O)c2cccc3nsnc23)c1 > 76.9 µM
CC1Cc2nc(SCC(=O)N3CCc4ccccc43)n(C)c(=O)c2S1 (stereo not given) > 76.9 µM
CCN(CCCNC(=O)CN1C(=O)COc2ccccc21)c1ccccc1 > 76.9 µM
CCc1c(C)nc2cc(-c3ccc(OC)c(OC)c3)nn2c1N1CCCC1 > 76.9 µM
CCOC(=O)c1ccccc1NC(=O)CSc1nnc(COc2ccccc2)n1CC > 76.9 µM
O=C(NCc1ccco1)C1CCCN1C(=O)NCc1ccccc1 (stereo not given) > 76.9 µM
O=C1NCCCc2c1oc1cc(Br)c(O)c(Br)c21 > 76.9 µM
Cc1nc2cc(NC(=O)N(C)c3ccc4ccccc4c3)ccc2o1 > 76.9 µM
CCOC(=O)Cn1c(=O)n(C2CCCC2)c(=O)c2ccccc21 > 76.9 µM
Cc1ccc(C)c(N2CCN(S(=O)(=O)c3ccc4c(c3)oc(=O)n4C)CC2)c1 > 76.9 µM
c1cncc(C(c2nnnn2C2CCCC2)N2CCN(Cc3ccc4c(c3)OCO4)CC2)c1 (stereo not given) > 76.9 µM
O=C(CCC(=O)c1cccs1)OCC(=O)c1ccc(Cl)s1 > 76.9 µM
Cc1nn(C(C)C(=O)O)c2ccccc12 (stereo not given) > 76.9 µM
CCCc1[nH][nH]c(=O)c1C(c1ccccc1)C(C#N)C#N (stereo not given) > 76.9 µM
COc1ccc(-c2cc(C(=O)N3CCN(c4ccccn4)CC3)c3ccccc3n2)cc1 > 76.9 µM
COc1ccc(N2C(=O)C3CCCN3C2c2cccc(F)c2)cc1Cl (stereo not given) > 76.9 µM
Cc1ccc(N2CC(C)Cn3c2nc2c3c(=O)n(CC(=O)OCc3ccccc3)c(=O)n2C)cc1C (stereo not given) > 76.9 µM
O=C1NCCCCC1NC1CC(=O)N(c2ccccc2)C1=O (stereo not given) > 76.9 µM
CCOC(=O)COc1nc(C)c(Br)c(OC)n1 > 76.9 µM
CCCCCN(C(=O)NC(=O)Nc1ccccc1C)S(C)(=O)=O > 76.9 µM
Nc1nncn1C(=O)c1c(Cl)cccc1Cl > 76.9 µM
CCOc1ccc2[nH]c(S(=O)(=O)CC)nc2c1Cl > 76.9 µM
CCC(Sc1nncn1C)C(=O)Nc1ccccc1OC (stereo not given) > 76.9 µM
COc1ccc(C)cc1-n1nnnc1SC/C(O)=C(\C#N)c1nc2ccccc2[nH]1 > 76.9 µM
COc1ccc(CCNc2oc(COc3ccccc3F)nc2C#N)cc1OC > 76.9 µM
CC(=O)NC(Cc1ccccc1)C(=O)NC1CCN(C(=O)NC2CCCCC2)CC1 (stereo not given) > 76.9 µM
CC(=O)N1CCN(c2ccc(S(=O)(=O)N3CCCCC3)cn2)CC1 > 76.9 µM
COc1cccc(C(=O)Nc2ccc(C(=O)O)cc2)c1 > 76.9 µM
CCOC(=O)COn1c2c(c3c4no[n+]([O-])c4ccc31)CCCC2 > 76.9 µM
COc1cc(C(=O)Nc2c(-c3ccccn3)c(=O)c3ccccc3n2C)cc(OC)c1OC > 76.9 µM
Cc1ccc(S(=O)(=O)N2CCCC(C(=O)NCc3cccnc3)C2)cc1Cl (stereo not given) > 76.9 µM
O=C(CSc1nnc(-c2ccccc2)o1)N1CCc2ccccc2C1 > 76.9 µM
O=C1CSC(c2ccncc2)N1Cc1ccco1 (stereo not given) > 76.9 µM
O=C(c1ccccc1)N1CCN(C2CC3CCC2C3)CC1 (stereo not given) > 76.9 µM
CCOC(=O)N1CCC(NC(=O)c2cc(C(=O)NCc3cccc(Cl)c3)ccc2CO)CC1 > 76.9 µM
CCc1cc(C(=O)OC)c(NC(=O)c2cc(Br)cs2)s1 > 76.9 µM
CS(=O)(=O)N(CC(=O)N1CCN(c2cccc(Cl)c2)CC1)C1CCCCC1 > 76.9 µM
CN(C(=O)NC(=O)C1=C(N2CCOCC2)/C(=C/c2ccccc2)CC1)S(C)(=O)=O > 76.9 µM
CCCCOCCCn1cnc2c([nH]c3cc(OC)ccc32)c1=O > 76.9 µM
CCc1c(C)nc2c(C#N)c(C)[nH]n2c1=O > 76.9 µM
CCCCN(C)CCCNC(=O)C1CC(=O)N(Cc2ccc(OC)cc2)C1 (stereo not given) > 76.9 µM
COC(=O)c1cccc(S(=O)(=O)N2CCC(C)CC2)c1 > 76.9 µM
COc1ccc(S(=O)(=O)N2CCCC2)c(C)c1C > 76.9 µM
Nc1nonc1-c1noc(CCCN2C(=O)c3ccccc3C2=O)n1 > 76.9 µM
CCc1nnc(NS(=O)(=O)c2ccc(NC(=O)OC)cc2)s1 > 76.9 µM
CCCN1Cc2cccc(C(=O)NCc3ccc4c(c3)OCO4)c2C1=O > 76.9 µM
COc1ccc(CC(=O)Nc2c3c(nn2-c2cccc(Cl)c2)CS(=O)C3)cc1 (stereo not given) > 76.9 µM
CC(=O)Nc1cccc(OCC(O)Cn2cnc3ccccc32)c1 (stereo not given) > 76.9 µM
CCOC(=O)c1nnn(CC(=O)Nc2cccc(OC)c2)c1C(=O)OCC > 76.9 µM
Cc1cc2c(c(N)n1)c(=O)oc1ccccc12 > 76.9 µM
Cc1cc2cc(CN(Cc3ccco3)C(=O)C3CCCCC3)c(=O)[nH]c2cc1C > 76.9 µM
O=C1CCCN1CCC1CCN(C2CC(=O)N(c3ccc(F)cc3)C2=O)CC1 (stereo not given) > 76.9 µM
CNC(=O)CN(c1cccc2ccccc12)S(C)(=O)=O > 76.9 µM
CN(C)CCN1C(=O)C(O)=C(C(=O)c2ccco2)C1c1ccccc1F (stereo not given) > 76.9 µM
COc1ccccc1N1CCN(S(=O)(=O)c2cccc3nsnc23)CC1 > 76.9 µM
Cc1cc(Br)ccc1NC(=O)CCN1C(=O)c2ccncc2C1=O > 76.9 µM
CSc1nnc2c3c4c(sc3c(=O)n(-c3ccccc3)n12)CC(C)(C)OC4 > 76.9 µM
O=C(CCNC(=O)Cn1ccc2ccccc2c1=O)NCCN1CCN(c2ccccc2F)CC1 > 76.9 µM
COc1ccc(C(=O)Nn2cnc3scc(-c4cccs4)c3c2=O)c(O)c1 > 76.9 µM
COc1ccc(C2C(C(=O)N3CCCC3)c3cc(OC)c(OC)cc3C(=O)N2C)cc1 (stereo not given) > 76.9 µM
CC(Nc1cc(=O)n(C)c(=O)n1C)c1ccccc1 (stereo not given) > 76.9 µM
Cc1c(C(=O)NC(C)CN2CCCCC2)oc2ccccc12 (stereo not given) > 76.9 µM
Cc1cc(C)nc(SCNC(=O)c2ccc(F)cc2)n1 > 76.9 µM
COc1cc(NS(=O)(=O)c2ccccc2)ccc1-n1nc(C)cc1C > 76.9 µM
COCCN1CC(=O)N(c2cccc(C)c2C)C(c2ccc(Cl)cc2)C1=O (stereo not given) > 76.9 µM
Cc1ccc(SC(C)c2nc(-c3ccccc3)no2)cc1 (stereo not given) > 76.9 µM
CCOC(=O)C1=C(C)NC(=O)NC1c1ccc(OC)c(CN2CCOCC2)c1 (stereo not given) > 76.9 µM
COc1cccc2cc(-c3nnc(SCC(=O)Nc4nc(C)cs4)n3C)oc12 > 76.9 µM
CCCC(=O)Nc1ccc2c(c1)nc1n2CCOC1 > 76.9 µM

Potency, active:
COCC(=O)NCCNc1nc2ccc(C)cc2cc1C 2.75 µM

Source: PubChem BioAssay AID360 (National Center for Advancing Translational Sciences (NCATS), 2006)
